Experimental data: the supplement of paper PMC10126150
Sequences with one replicate were seen in a single cluster, so their values are uncertain.

Test system: ATP
Test: switch fluorescence ratio, 500 uM ATP over buffer (Cy3 cluster intensity, sum of 5 cycles each) (fold (ratio)); higher = stronger signal-on switching upon ATP binding; sequences stand for … in TCGTCGGCAGCGTCAGATGTGTATAAGAGACAGTTTTTTTTTTTTTTTTTTTTTTTTT…TC
Conditions: aptamer strand: ATP DNA aptamer (quencher-CACCTGGGGGAGTATTGCGGAGGAAGG + anchor), 100 nM annealed; ATP concentration: 500 uM; one replicate
Procedure, shortened: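 After annealing to 100 nM quencher-labelled ATP aptamer, Cy3-labelled switching-strand clusters on a modified Illumina MiSeq flow-cell were imaged in selection buffer. A second image followed after 15 min with 500 uM ATP at 22 °C, and five such buffer/ATP cycles were done, each separated by NaOH stripping and re-annealing. The fluorescence ratio, averaged per switch-domain sequence, is summed target-cycle over summed buffer-cycle Cy3 intensity per cluster, with clusters outside 100-1000 RFU excluded.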
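Also: ATP exposure 15 min at 22 °C before imaging.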

| Sequence | switch fluorescence ratio |
| --- | --- |
| AAAGCCCGTT | 1.01 |
| AACAGCAAGG | 1.07 |
| GTGGCACCGG | 0.998 |
| TGGAGTTATT | 1.01 |
| GTGCTAAGAC | 1.2 |
| CAGCTCCGGA | 1.04 |
| TGGATCCGAG | 1.05 |
| CGCTGGAGCA | 1.04 |
| GTTAGTGAA | 0.989 |
| CACAAGCTTC | 1.17 |
| GACGGGTTAC | 2.2 |
| TAAAGCTGCG | 0.993 |
| GATGTGTGCT | 0.956 |
| TAGCAGAATT | 1.03 |
| TCGATATGTT | 1.02 |
| GCGGGCCTAT | 1.02 |
| TAATGCGAGC | 1.58 |
| GGCGACCGAC | 1.24 |
| ACACAGTCGT | 1.03 |
| CATTTCTGGA | 0.976 |
| GACGTATCGC | 1.03 |
| CAGCGTTGTG | 1.01 |
| TGGTGCATTG | 0.975 |
| CTCAAGCGAT | 5.93 |
| GGACTAAGCT | 0.999 |

| Sequence | switch fluorescence ratio |
| --- | --- |
| CCCTTTAGAG | 1.01 |
| TGAGACCGA | 1.01 |
| GAGTGAATGT | 1.01 |
| GATGAGACAC | 0.938 |
| GCCCCTCGGT | 1.03 |
| CCGTGAATTA | 1.13 |
| GGAATCCATC | 1.06 |
| GAACATTGAT | 1 |
| TTACGAATAC | 2.22 |
| GATAGAGAAG | 1 |
| GGCGGAATGA | 1.04 |
| TGATTCAGCA | 1.02 |
| CCTATAGTTG | 1.03 |
| TTGGACCCGT | 0.996 |
| TATGCGACG | 1.05 |
| AACATGGTAC | 1.03 |
| CAAACGGCAG | 1.17 |
| CGGATTGTCT | 1.07 |
| TAAGTAAACG | 0.919 |
| TCTGAGCGTT | 1.01 |
| CGAGTAGAAC | 0.97 |
| TAAGACTTAC | 1.31 |
| CGCATTTAAA | 1.02 |
| TGAACCTAGG | 1.08 |
| CGCAATAAAG | 6.04 |

| Sequence | switch fluorescence ratio |
| --- | --- |
| GCGAAATCCA | 1.01 |
| TGTATGGAAG | 1.02 |
| CGGTAAAGT | 1.03 |
| CCCTCGTTA | 0.984 |
| CATTAGCTCT | 0.996 |
| ACATTTGAGG | 0.994 |
| GATTCCTAAT | 1.02 |
| GGTCTAAA | 1.02 |
| CTTACTAAAC | 1.09 |
| TTGAGGTTCC | 1.01 |
| CCCTTTTATC | 1 |
| CGTTGGTATT | 1.01 |
| GTTTGACGCG | 0.921 |
| CTGTGTGAGC | 1.01 |
| TAGAATTATA | 0.97 |
| AAGCCTTGTC | 1.11 |
| CATTGCCGGG | 1 |
| ATCCTGACTC | 2.01 |
| CCCCAAAAGG | 1.05 |
| AGTGTACCGT | 0.99 |
| GAGGACCCGG | 0.986 |
| GATATAAAAC | 1.06 |
| CTCTATCGAG | 0.982 |
| TGCCTGGAT | 0.969 |
| TCCGGTTCCG | 1.02 |

| Sequence | switch fluorescence ratio |
| --- | --- |
| GTGGTTTGT | 0.972 |
| TGACAGGCT | 1.02 |
| AGTGTTATCT | 0.998 |
| TGTTGATGGA | 1.04 |
| AGCTGGAG | 0.991 |
| TTCTCGCTCG | 1.11 |
| AGCGGGGACG | 1.11 |
| TAAATCTTTG | 1.04 |
| CAATTGGTG | 1.02 |
| ACACAAGTGG | 0.964 |
| TCAGAACTCG | 0.956 |
| GTGGGCAGTC | 1.09 |
| AAAGAGCCAC | 1.05 |
| CTCGGGTAT | 1.01 |
| TGTCAGGCCT | 0.97 |
| AAATGTGGAC | 1.04 |
| CAGTGAAGAG | 0.999 |
| CTTTGGTTGG | 0.916 |
| TACTGAGGAC | 0.97 |
| GCTATGGAGT | 0.993 |
| ATAAGATC | 0.955 |
| AATATAGTAG | 0.998 |
| GATCTGGTTG | 1 |
| GACTGAGCTT | 1.06 |
| CTCAGATCCC | 1.04 |
